The supplement of paper PMC8728848
This is one part of the list.

Columns and labels:
Assay in all cases: glycan array binding signal (z-score within array); higher = stronger binding
Settings in all cases: glycan notation: IUPAC condensed, linker removed
Gal(b1-3)Gal(b1-4)GlcNAc = target: Gal(b1-3)Gal(b1-4)GlcNAc
Outline: (§1)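 From the Consortium for Functional Glycomics database, 3228 arrays were curated, keeping only those whose protein sequence was available. Binding is given as a within-array Z-score averaged across arrays sharing a protein sequence and across linkers. Negative Z-scores can be read as non-binding.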

[1] = target: Gal(b1-3)Gal(b1-4)GlcNAc(b1-2)Man(a1-3)[Gal(b1-3)Gal(b1-4)GlcNAc(b1-2)Man(a1-6)]Man(b1-4)GlcNAc(b1-4)GlcNAc
Outline: as §1

Gal(b1-3)GalNAc = target: Gal(b1-3)GalNAc
Outline: as §1

[2] = target: Gal(b1-3)GalNAc(a1-3)[Fuc(a1-2)]Gal(b1-4)Glc
Outline: as §1

[3] = target: Gal(b1-3)GalNAc(a1-3)[Fuc(a1-2)]Gal(b1-4)GlcNAc
Outline: as §1

[4] = target: Gal(b1-3)GalNAc(b1-3)Gal(a1-4)Gal(b1-4)Glc
Outline: as §1

[5] = target: Gal(b1-3)GalNAc(b1-4)Gal(b1-4)Glc
Outline: as §1

[6] = target: Gal(b1-3)GalNAc(b1-4)[Neu5Ac(a2-3)]Gal(b1-4)Glc
Outline: as §1

Gal(b1-3)GlcNAc = target: Gal(b1-3)GlcNAc
Outline: as §1

[7] = target: Gal(b1-3)GlcNAc(a1-3)Gal(b1-4)GlcNAc
Outline: as §1

[8] = target: Gal(b1-3)GlcNAc(a1-6)Gal(b1-4)GlcNAc
Outline: as §1

[9] = target: Gal(b1-3)GlcNAc(b1-2)Man(a1-3)[Gal(b1-3)GlcNAc(b1-2)Man(a1-6)]Man(b1-4)GlcNAc(b1-4)GlcNAc
Outline: as §1

[10] = target: Gal(b1-3)GlcNAc(b1-2)Man(a1-3)[Gal(b1-3)GlcNAc(b1-2)Man(a1-6)]Man(b1-4)GlcNAc(b1-4)[Fuc(a1-6)]GlcNAc
Outline: as §1

[11] = target: Gal(b1-3)GlcNAc(b1-2)Man(a1-3)[GlcNAc(b1-4)][Gal(b1-3)GlcNAc(b1-2)Man(a1-6)]Man(b1-4)GlcNAc(b1-4)GlcNAc
Outline: as §1

[12] = target: Gal(b1-3)GlcNAc(b1-2)[Gal(b1-3)GlcNAc(b1-6)]Man(a1-6)[Gal(b1-3)GlcNAc(b1-2)Man(a1-3)]Man(b1-4)GlcNAc(b1-4)GlcNAc
Outline: as §1

[13] = target: Gal(b1-3)GlcNAc(b1-3)Gal(b1-3)GlcNAc
Outline: as §1

[14] = target: Gal(b1-3)GlcNAc(b1-3)Gal(b1-4)Glc
Outline: as §1

[15] = target: Gal(b1-3)GlcNAc(b1-3)Gal(b1-4)GlcNAc
Outline: as §1

[16] = target: Gal(b1-3)GlcNAc(b1-3)Gal(b1-4)GlcNAc(b1-6)[Gal(b1-3)GlcNAc(b1-3)]Gal(b1-4)Glc
Outline: as §1

[17] = target: Gal(b1-3)GlcNAc(b1-3)Gal(b1-4)[Fuc(a1-3)]GlcNAc(b1-6)[Gal(b1-3)GlcNAc(b1-3)]Gal(b1-4)Glc
Outline: as §1

[18] = target: Gal(b1-3)GlcNAc(b1-3)GalNAc
Outline: as §1

[19] = target: Gal(b1-3)GlcNAc(b1-6)Gal(b1-4)GlcNAc
Outline: as §1

[20] = target: Gal(b1-3)GlcNAc(b1-6)GalNAc
Outline: as §1

Gal(b1-3)GlcNAc6S = target: Gal(b1-3)GlcNAc6S
Outline: as §1

[21] = target: Gal(b1-3)[Fuc(a1-4)]GlcNAc
Outline: as §1

[22] = target: Gal(b1-3)[Fuc(a1-4)]GlcNAc(b1-2)Man(a1-3)[Gal(b1-3)[Fuc(a1-4)]GlcNAc(b1-2)Man(a1-6)]Man(b1-4)GlcNAc(b1-4)GlcNAc
Outline: as §1

[23] = target: Gal(b1-3)[Fuc(a1-4)]GlcNAc(b1-2)Man(a1-3)[Gal(b1-3)[Fuc(a1-4)]GlcNAc(b1-2)Man(a1-6)]Man(b1-4)GlcNAc(b1-4)[Fuc(a1-6)]GlcNAc
Outline: as §1

[24] = target: Gal(b1-3)[Fuc(a1-4)]GlcNAc(b1-3)Gal(b1-3)[Fuc(a1-4)]GlcNAc
Outline: as §1

[25] = target: Gal(b1-3)[Fuc(a1-4)]GlcNAc(b1-3)Gal(b1-4)GlcNAc
Outline: as §1

[26] = target: Gal(b1-3)[Fuc(a1-4)]GlcNAc(b1-3)Gal(b1-4)[Fuc(a1-3)]GlcNAc
Outline: as §1

[27] = target: Gal(b1-3)[Fuc(a1-4)]GlcNAc(b1-6)GalNAc
Outline: as §1

[28] = target: Gal(b1-3)[GlcNAc(b1-6)]GalNAc
Outline: as §1

[29] = target: Gal(b1-3)[Neu5Ac(a2-6)]GalNAc
Outline: as §1

[30] = target: Gal(b1-3)[Neu5Ac(a2-6)]GlcNAc(b1-6)Gal(b1-4)Glc
Outline: as §1

[31] = target: Gal(b1-3)[Neu5Ac(b2-6)]GalNAc
Outline: as §1

Gal(b1-4)Gal = target: Gal(b1-4)Gal
Outline: as §1

[32] = target: Gal(b1-4)GalNAc(a1-3)[Fuc(a1-2)]Gal(b1-4)GlcNAc
Outline: as §1

[33] = target: Gal(b1-4)GalNAc(b1-3)[Fuc(a1-2)]Gal(b1-4)GlcNAc
Outline: as §1

B1: RVL (Remusatia vivipara), B5LYJ9 (protein)
chain: MAKLLLFLLPAILGLLVPRSAVALGTNYLLSGQTLDTEGHLKNGDFDLVMQDDCNLVLYNGNWQSNTANNGRDCKLTLTDYGELVIKNGDGSTVWKSGAQSVKGNYAAVVHPDGRLVVLGPSVFKIDPWVRGLNSLRFRNIPFTNNLLFSGQVLYGDGRLTAKNHQLVMQGDCNLVLYGGKYGWQSNTHGNGEHCFLRLNHKGELIIKDDDFKTIWSSRSSSKQGEYVLILQDDGFGVIYGPAIFETSSKRSIAAS
glycan array binding signal (z-score) (Gal(b1-3)Gal(b1-4)GlcNAc): -0.124
glycan array binding signal (z-score) [1]: 0.377
glycan array binding signal (z-score) (Gal(b1-3)GalNAc): -0.206
glycan array binding signal (z-score) [2]: -0.181
glycan array binding signal (z-score) [3]: -0.307
glycan array binding signal (z-score) [4]: -0.01
glycan array binding signal (z-score) [5]: -0.076
glycan array binding signal (z-score) [6]: -0.201
glycan array binding signal (z-score) (Gal(b1-3)GlcNAc): -0.311
glycan array binding signal (z-score) [7]: -0.198
glycan array binding signal (z-score) [8]: -0.316
glycan array binding signal (z-score) [9]: 1.33
glycan array binding signal (z-score) [10]: -0.098
glycan array binding signal (z-score) [11]: 0.453
glycan array binding signal (z-score) [12]: 0.123
glycan array binding signal (z-score) [13]: -0.222
glycan array binding signal (z-score) [14]: -0.227
glycan array binding signal (z-score) [15]: -0.252
glycan array binding signal (z-score) [16]: -0.574
glycan array binding signal (z-score) [17]: -0.053
glycan array binding signal (z-score) [18]: -0.055
glycan array binding signal (z-score) [19]: 0.004
glycan array binding signal (z-score) [20]: -0.041
glycan array binding signal (z-score) (Gal(b1-3)GlcNAc6S): -0.087
glycan array binding signal (z-score) [21]: -0.07
glycan array binding signal (z-score) [22]: -0.239
glycan array binding signal (z-score) [23]: 0.116
glycan array binding signal (z-score) [24]: 0.194
glycan array binding signal (z-score) [25]: -0.293
glycan array binding signal (z-score) [26]: -0.138
glycan array binding signal (z-score) [27]: -0.148
glycan array binding signal (z-score) [28]: -0.124
glycan array binding signal (z-score) [29]: 0.005
glycan array binding signal (z-score) [30]: -0.214
glycan array binding signal (z-score) [31]: -0.313
glycan array binding signal (z-score) (Gal(b1-4)Gal): -0.187
glycan array binding signal (z-score) [32]: -0.217
glycan array binding signal (z-score) [33]: -0.146
